# According to the supplement of paper PMC8728848:
# The other results are listed elsewhere or left out.
# B1: LCA (Lens culinaris), P02870 (protein)
# chain: MASLQTQMISFYLIFLSILLTTIFFFKVNSTETTSFSITKFSPDQKNLIFQGDGYTTKGKLTLTKAVKSTVGRALYSTPIHIWDRDTGNVANFVTSFTFVIDAPSSYNVADEFTFFIAPVDTKPQTGGGYLGVFNSKEYDKTSQTVAVEFDTFYNAAWDPSNKERHIGIDVNSIKSVNTKSWNLQNGERANVVIAFNAATNVLTVTLTYPNSLEEENVTSYTLNEVVPLKDVVPEWVRIGFSATTGAEFAAHEVHSWSFHSELGGTSSSKQAADA
# Key:
# Experiment in all cases: glycan array binding signal (z-score within array); higher = stronger binding
# Details in all cases: glycan notation: IUPAC condensed, linker removed
# [1] = biological target: Neu5Ac(a2-3)[GalNAc(b1-4)]Gal(b1-4)Glc
# Summary of the method: (§1)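 Glycan array binding is given as a within-array Z-score, which can be read as non-binding when negative. The arrays, 3228 of them, came from the Consortium for Functional Glycomics database and were retained only where the protein sequence was available. Z-scores were averaged across arrays of the same protein sequence at different concentrations or buffers and across linkers.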
# [2] = biological target: Neu5Ac(a2-3)[GalNAc(b1-4)]Gal(b1-4)GlcNAc
# Summary of the method: as §1
# [3] = biological target: Neu5Ac(a2-3)[GalNAc(b1-4)]Gal(b1-4)GlcNAc(b1-3)GalNAc
# Summary of the method: as §1
# [4] = biological target: Neu5Ac(a2-3)[Neu5Ac(a2-6)]GalNAc
# Summary of the method: as §1
# Neu5Ac(a2-6)Gal = biological target: Neu5Ac(a2-6)Gal
# Summary of the method: as §1
# [5] = biological target: Neu5Ac(a2-6)Gal(b1-3)GlcNAc(b1-3)[Gal(b1-4)GlcNAc(b1-6)]Gal(b1-4)Glc
# Summary of the method: as §1
# Neu5Ac(a2-6)Gal(b1-4)Glc = biological target: Neu5Ac(a2-6)Gal(b1-4)Glc
# Summary of the method: as §1
# [6] = biological target: Neu5Ac(a2-6)Gal(b1-4)GlcNAc
# Summary of the method: as §1
# [7] = biological target: Neu5Ac(a2-6)Gal(b1-4)GlcNAc(b1-2)Man
# Summary of the method: as §1
# [8] = biological target: Neu5Ac(a2-6)Gal(b1-4)GlcNAc(b1-2)Man(a1-3)Man(b1-4)GlcNAc(b1-4)GlcNAc
# Summary of the method: as §1
# [9] = biological target: Neu5Ac(a2-6)Gal(b1-4)GlcNAc(b1-2)Man(a1-3)[Gal(b1-4)GlcNAc(b1-2)Man(a1-6)]Man(b1-4)GlcNAc(b1-4)GlcNAc
# Summary of the method: as §1
# [10] = biological target: Neu5Ac(a2-6)Gal(b1-4)GlcNAc(b1-2)Man(a1-3)[GlcNAc(b1-2)Man(a1-6)]Man(b1-4)GlcNAc(b1-4)GlcNAc
# Summary of the method: as §1
# [11] = biological target: Neu5Ac(a2-6)Gal(b1-4)GlcNAc(b1-2)Man(a1-3)[GlcNAc(b1-4)][Neu5Ac(a2-6)Gal(b1-4)GlcNAc(b1-2)Man(a1-6)]Man(b1-4)GlcNAc(b1-4)GlcNAc
# Summary of the method: as §1
# [12] = biological target: Neu5Ac(a2-6)Gal(b1-4)GlcNAc(b1-2)Man(a1-3)[Man(a1-6)]Man(b1-4)GlcNAc(b1-4)GlcNAc
# Summary of the method: as §1
# [13] = biological target: Neu5Ac(a2-6)Gal(b1-4)GlcNAc(b1-2)Man(a1-3)[Neu5Ac(a2-3)Gal(b1-4)GlcNAc(b1-2)Man(a1-6)]Man(b1-4)GlcNAc(b1-4)GlcNAc
# Summary of the method: as §1
# [14] = biological target: Neu5Ac(a2-6)Gal(b1-4)GlcNAc(b1-2)Man(a1-3)[Neu5Ac(a2-6)Gal(b1-4)GlcNAc(b1-2)Man(a1-6)]Man(b1-4)GlcNAc(b1-4)GlcNAc
# Summary of the method: as §1
# [15] = biological target: Neu5Ac(a2-6)Gal(b1-4)GlcNAc(b1-2)Man(a1-3)[Neu5Ac(a2-6)Gal(b1-4)GlcNAc(b1-2)Man(a1-6)]Man(b1-4)GlcNAc(b1-4)[Fuc(a1-6)]GlcNAc
# Summary of the method: as §1
# [16] = biological target: Neu5Ac(a2-6)Gal(b1-4)GlcNAc(b1-2)Man(a1-6)Man(b1-4)GlcNAc(b1-4)GlcNAc
# Summary of the method: as §1
# [17] = biological target: Neu5Ac(a2-6)Gal(b1-4)GlcNAc(b1-2)Man(a1-6)[Gal(b1-4)GlcNAc(b1-2)Man(a1-3)]Man(b1-4)GlcNAc(b1-4)GlcNAc
# Summary of the method: as §1
# [18] = biological target: Neu5Ac(a2-6)Gal(b1-4)GlcNAc(b1-2)Man(a1-6)[GlcNAc(b1-2)Man(a1-3)]Man(b1-4)GlcNAc(b1-4)GlcNAc
# Summary of the method: as §1
# [19] = biological target: Neu5Ac(a2-6)Gal(b1-4)GlcNAc(b1-2)Man(a1-6)[Man(a1-3)]Man(b1-4)GlcNAc(b1-4)GlcNAc
# Summary of the method: as §1
# [20] = biological target: Neu5Ac(a2-6)Gal(b1-4)GlcNAc(b1-2)[Neu5Ac(a2-6)Gal(b1-4)GlcNAc(b1-4)]Man(a1-3)[GlcNAc(b1-4)][Neu5Ac(a2-6)Gal(b1-4)GlcNAc(b1-2)[Neu5Ac(a2-6)Gal(b1-4)GlcNAc(b1-6)]Man(a1-6)]Man(b1-4)GlcNAc(b1-4)GlcNAc
# Summary of the method: as §1
# [21] = biological target: Neu5Ac(a2-6)Gal(b1-4)GlcNAc(b1-2)[Neu5Ac(a2-6)Gal(b1-4)GlcNAc(b1-4)]Man(a1-3)[GlcNAc(b1-4)][Neu5Ac(a2-6)Gal(b1-4)GlcNAc(b1-4)Man(a1-6)]Man(b1-4)GlcNAc(b1-4)GlcNAc
# Summary of the method: as §1
# [22] = biological target: Neu5Ac(a2-6)Gal(b1-4)GlcNAc(b1-2)[Neu5Ac(a2-6)Gal(b1-4)GlcNAc(b1-6)]Man(a1-6)[Neu5Ac(a2-6)Gal(b1-4)GlcNAc(b1-2)Man(a1-3)][GlcNAc(b1-4)]Man(b1-4)GlcNAc(b1-4)GlcNAc
# Summary of the method: as §1
# [23] = biological target: Neu5Ac(a2-6)Gal(b1-4)GlcNAc(b1-3)Gal(b1-3)GlcNAc
# Summary of the method: as §1
# [24] = biological target: Neu5Ac(a2-6)Gal(b1-4)GlcNAc(b1-3)Gal(b1-4)GlcNAc
# Summary of the method: as §1
# [25] = biological target: Neu5Ac(a2-6)Gal(b1-4)GlcNAc(b1-3)Gal(b1-4)GlcNAc(b1-2)Man(a1-3)[Neu5Ac(a2-6)Gal(b1-4)GlcNAc(b1-3)Gal(b1-4)GlcNAc(b1-2)Man(a1-6)]GalNAc
# Summary of the method: as §1
# [26] = biological target: Neu5Ac(a2-6)Gal(b1-4)GlcNAc(b1-3)Gal(b1-4)GlcNAc(b1-3)Gal(b1-4)GlcNAc
# Summary of the method: as §1
# [27] = biological target: Neu5Ac(a2-6)Gal(b1-4)GlcNAc(b1-3)Gal(b1-4)GlcNAc(b1-3)Gal(b1-4)GlcNAc(b1-2)Man(a1-3)[Neu5Ac(a2-6)Gal(b1-4)GlcNAc(b1-3)Gal(b1-4)GlcNAc(b1-3)Gal(b1-4)GlcNAc(b1-2)Man(a1-6)]GalNAc
# Summary of the method: as §1
# [28] = biological target: Neu5Ac(a2-6)Gal(b1-4)GlcNAc(b1-3)Gal(b1-4)GlcNAc(b1-3)GalNAc
# Summary of the method: as §1
# [29] = biological target: Neu5Ac(a2-6)Gal(b1-4)GlcNAc(b1-3)Gal(b1-4)GlcNAc(b1-3)[Neu5Ac(a2-6)Gal(b1-4)GlcNAc(b1-3)Gal(b1-4)GlcNAc(b1-6)]GalNAc
# Summary of the method: as §1
# [30] = biological target: Neu5Ac(a2-6)Gal(b1-4)GlcNAc(b1-3)Gal(b1-4)GlcNAc(b1-6)[Gal(b1-3)]GalNAc
# Summary of the method: as §1
# [31] = biological target: Neu5Ac(a2-6)Gal(b1-4)GlcNAc(b1-3)Gal(b1-4)[Fuc(a1-3)]GlcNAc(b1-3)Gal(b1-4)[Fuc(a1-3)]GlcNAc
# Summary of the method: as §1
# [32] = biological target: Neu5Ac(a2-6)Gal(b1-4)GlcNAc(b1-3)GalNAc
# Summary of the method: as §1
# [33] = biological target: Neu5Ac(a2-6)Gal(b1-4)GlcNAc(b1-3)[Neu5Ac(a2-6)Gal(b1-4)GlcNAc(b1-6)]GalNAc
# Summary of the method: as §1
# [34] = biological target: Neu5Ac(a2-6)Gal(b1-4)GlcNAc(b1-6)GalNAc
# Summary of the method: as §1
# [35] = biological target: Neu5Ac(a2-6)Gal(b1-4)GlcNAc(b1-6)[Gal(b1-3)GlcNAc(b1-3)]Gal(b1-4)Glc
# Summary of the method: as §1
# [36] = biological target: Neu5Ac(a2-6)Gal(b1-4)GlcNAc(b1-6)[Gal(b1-3)]GalNAc
# Summary of the method: as §1
binder,measurement,setting,value
B1,glycan array binding signal (z-score),[1],-0.235
same,glycan array binding signal (z-score),[2],-0.21
same,glycan array binding signal (z-score),[3],0.102
same,glycan array binding signal (z-score),[4],-0.228
same,glycan array binding signal (z-score),Neu5Ac(a2-6)Gal,-0.218
same,glycan array binding signal (z-score),[5],-0.232
same,glycan array binding signal (z-score),Neu5Ac(a2-6)Gal(b1-4)Glc,-0.197
same,glycan array binding signal (z-score),[6],-0.202
same,glycan array binding signal (z-score),[7],-0.23
same,glycan array binding signal (z-score),[8],-0.214
same,glycan array binding signal (z-score),[9],-0.188
same,glycan array binding signal (z-score),[10],-0.017
same,glycan array binding signal (z-score),[11],-0.24
same,glycan array binding signal (z-score),[12],-0.239
same,glycan array binding signal (z-score),[13],-0.222
same,glycan array binding signal (z-score),[14],-0.178
same,glycan array binding signal (z-score),[15],4.04
same,glycan array binding signal (z-score),[16],-0.23
same,glycan array binding signal (z-score),[17],-0.207
same,glycan array binding signal (z-score),[18],-0.231
same,glycan array binding signal (z-score),[19],-0.202
same,glycan array binding signal (z-score),[20],-0.236
same,glycan array binding signal (z-score),[21],-0.227
same,glycan array binding signal (z-score),[22],-0.211
same,glycan array binding signal (z-score),[23],-0.296
same,glycan array binding signal (z-score),[24],-0.22
same,glycan array binding signal (z-score),[25],-0.067
same,glycan array binding signal (z-score),[26],-0.234
same,glycan array binding signal (z-score),[27],0.072
same,glycan array binding signal (z-score),[28],-0.224
same,glycan array binding signal (z-score),[29],0.285
same,glycan array binding signal (z-score),[30],-0.146
same,glycan array binding signal (z-score),[31],-0.224
same,glycan array binding signal (z-score),[32],-0.22
same,glycan array binding signal (z-score),[33],-0.238
same,glycan array binding signal (z-score),[34],-0.204
same,glycan array binding signal (z-score),[35],-0.209
same,glycan array binding signal (z-score),[36],-0.226
